Reference: PMC7819943, “Rice protein-binding microarrays: a tool to detect cis-acting elements near promoter regions in rice”
The other results are listed elsewhere or left out.

molecular target: T1, OsWOX13 (Oryza sativa, UniProt Q5QMM3 1-267); assay: protein-binding microarray (RPBM); PBS, 2% BSA, 51.3 ng/ul salmon testes DNA, 50 uM zinc acetate, 200 nM TF, 25 C, 1 h; high values mean tight binding; details: protein: recombinant; tags: N-terminal polyhistidine and DsRed monomer fusion (pET32a); label: CyDye5-dUTP incorporated in the synthesized complementary strand; 3' TTTTT single-stranded linker to array surface; dsDNA, one strand shown
T1 sequence: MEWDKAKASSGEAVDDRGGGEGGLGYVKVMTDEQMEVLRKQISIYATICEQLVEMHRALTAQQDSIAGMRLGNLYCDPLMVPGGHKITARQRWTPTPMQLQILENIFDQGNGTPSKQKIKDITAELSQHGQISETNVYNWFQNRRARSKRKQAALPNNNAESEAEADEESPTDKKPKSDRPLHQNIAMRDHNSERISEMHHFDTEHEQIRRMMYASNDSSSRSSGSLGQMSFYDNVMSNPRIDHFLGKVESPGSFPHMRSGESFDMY
Outline: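 Polyhistidine-tagged DsRed fusions of transcription factors, joined at the N-terminus, were expressed in E. coli BL21-CodonPlus and isolated on Ni–NTA. They were incubated at 200 nM for 1 h at 25 °C on a custom Agilent array, double-stranded and BSA-blocked, in PBS with 2% BSA, salmon testes DNA and 50 µM zinc acetate. The binding signal is per-feature fluorescence intensity (arbitrary units) read on an Axon 4000B scanner after washing.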

Compared with “TACTCCCAATTAAGGCATTATAAGTAATGACCTTGCACCCCGGAGTCACCTAGTGCAG”, “ACTTGACTGACCGGACTAGAGAGAGATCCAAAGAGTAGATCGGAGTCACCTAGTGCAG” is higher in binding signal: 5470 fluorescence intensity (a.u.) for the first, 12500 fluorescence intensity (a.u.) for the second.

Compared with “GGTCAATTAGAGAGGACAAATGATGTACATGATGGTGGCACGGAGTCACCTAGTGCAG”, “AGCCAATTAGTTTGCTCTCTAGCTAGCTTATTATTGTTTACGGAGTCACCTAGTGCAG” is lower in binding signal: 16000 fluorescence intensity (a.u.) for the first, 5260 fluorescence intensity (a.u.) for the second.

First: CAACTATTGTATTAATTGGTTATTAAATATTGGTTATAGACGGAGTCACCTAGTGCAG
Second: GCCTAATTGTTTTATAATTTGACAACGTGGTGATACAATACGGAGTCACCTAGTGCAG
The binding signal of the first is lower: 6690 fluorescence intensity (a.u.) for the first, 35600 fluorescence intensity (a.u.) for the second.

First: ATTATAATTTTAGTTCAGTATAACATATTTGCTTGCATTCCGGAGTCACCTAGTGCAG
Second: CCAAAATAATAAATTTAATTACAAGTAGAGTACTATTTGTCGGAGTCACCTAGTGCAG
The binding signal of the first is lower: 5860 fluorescence intensity (a.u.) for the first, 25800 fluorescence intensity (a.u.) for the second.

Compared with “TAATACTGAATTAATCATGTGATAATGAACCATTTCGTTTCGGAGTCACCTAGTGCAG”, “ACAAAGATTTGATGGGTAACATGCTTTTATCCCCTGTTAACGGAGTCACCTAGTGCAG” is higher in binding signal: 4840 fluorescence intensity (a.u.) for the first, 5960 fluorescence intensity (a.u.) for the second.

Going from “CTCCGGCCTTTTAATTGGTGTTCTTGTTGGGCCGAAATGTCGGAGTCACCTAGTGCAG” to “TTGATCATCTTTCAATCCCCGGATTTAAATTCTAAGCTAACGGAGTCACCTAGTGCAG”, the binding signal falls from 6130 fluorescence intensity (a.u.) to 4420 fluorescence intensity (a.u.).

First: CGATTATTGATTTGATGAAACTAATTTAGTATTATAAATACGGAGTCACCTAGTGCAG
Second: TGTGATTGGTTGTTCTTGGTTTACTTCACCCTGTTGCTTCCGGAGTCACCTAGTGCAG
The binding signal of the first is lower: 24200 fluorescence intensity (a.u.) for the first, 52000 fluorescence intensity (a.u.) for the second.

First: TGAGATTGAATGACGCCATGAAATCTGAATTTATTGAGTTCGGAGTCACCTAGTGCAG
Second: TCTCAGAACGATCACAAATTAACGGCCCGGATTGGCCCAACGGAGTCACCTAGTGCAG
The binding signal of the first is higher: 36500 fluorescence intensity (a.u.) for the first, 3360 fluorescence intensity (a.u.) for the second.

Compared with “CACTATAGTTACAGTGTAATTACATGCAAGTTACAGTGTACGGAGTCACCTAGTGCAG”, “CATGGAAACTGCGAGATAAATTTATTAAGTCTAACTAATCCGGAGTCACCTAGTGCAG” is higher in binding signal: 5020 fluorescence intensity (a.u.) for the first, 6690 fluorescence intensity (a.u.) for the second.

Going from “CCGCAATTATTGGCCCTTAATTGTGAGGTTAATCCGTGGCCGGAGTCACCTAGTGCAG” to “AGAATTAACAGGGGAAAACATACATGTAGTTCTACCACTACGGAGTCACCTAGTGCAG”, the binding signal falls from 60900 fluorescence intensity (a.u.) to 4210 fluorescence intensity (a.u.).

Going from “TCCTAGAGATTGGTGAAGTCACTTTAGGCGTCTCACTGTCCGGAGTCACCTAGTGCAG” to “ACTATAATTTAAGATTGAAAATTTCAAAATTTGGTTGTGACGGAGTCACCTAGTGCAG”, the binding signal rises from 4020 fluorescence intensity (a.u.) to 38800 fluorescence intensity (a.u.).

Going from “CCTCCTTTCTAAATTGATCATCATATAATACAATCCAAAACGGAGTCACCTAGTGCAG” to “ATAAATTTATTCATTTATACTGTCGAATATTACCAGAAAACGGAGTCACCTAGTGCAG”, the binding signal rises from 6210 fluorescence intensity (a.u.) to 6630 fluorescence intensity (a.u.).

First: ATAATTTATTCAAATAAGACGGACGATCAAACATTTGACACGGAGTCACCTAGTGCAG
Second: CTCTTCTATCCTCTTAATTTGACAGAATAATCCCAGATCTCGGAGTCACCTAGTGCAG
The binding signal of the first is lower: 6480 fluorescence intensity (a.u.) for the first, 7460 fluorescence intensity (a.u.) for the second.

Compared with “ATCAAAATTTAAACTTGATTTGGTTGGGGTGCGCCAGGCCCGGAGTCACCTAGTGCAG”, “AGGAATTAACGTTGTGCTTGATTTCAGCTCGAGCTGCCGCCGGAGTCACCTAGTGCAG” is lower in binding signal: 35000 fluorescence intensity (a.u.) for the first, 4190 fluorescence intensity (a.u.) for the second.

Going from “CACGTAATTTTGAATCGTTAAATCTATTACAAGATTTGTTCGGAGTCACCTAGTGCAG” to “CCTAATTACGCCATGATTTGATAATATGATGCTACAATAACGGAGTCACCTAGTGCAG”, the binding signal rises from 21400 fluorescence intensity (a.u.) to 39600 fluorescence intensity (a.u.).

Compared with “TATGATTGACATGTGAGCTCCACCACTCTCGGGCCCACATCGGAGTCACCTAGTGCAG”, “TTTTAGATTTATTACATTATGAAATGGATATGGCGTGGAGCGGAGTCACCTAGTGCAG” is lower in binding signal: 34000 fluorescence intensity (a.u.) for the first, 9740 fluorescence intensity (a.u.) for the second.

Compared with “AAGATTATAACAGAGTGACAACCAACTCATCACAGAAAATCGGAGTCACCTAGTGCAG”, “TTGGGTTTGAATCCAATCACCGGATAATCACTCGAGTCTACGGAGTCACCTAGTGCAG” is higher in binding signal: 5190 fluorescence intensity (a.u.) for the first, 10900 fluorescence intensity (a.u.) for the second.

First: TCCATGTACTATCAATCTAAACATATCTCTATCCAGATTCCGGAGTCACCTAGTGCAG
Second: TTGTAGAATTAATTAAATAAACTGTATATATATATATGTGCGGAGTCACCTAGTGCAG
The binding signal of the first is lower: 5970 fluorescence intensity (a.u.) for the first, 14600 fluorescence intensity (a.u.) for the second.

Going from “GCTTAATCTTCTTTAATAAATGATCCTTCCTCATTGTGGTCGGAGTCACCTAGTGCAG” to “CTGAAATGATTTTCATTTGATTCAAATGGGCCTAAGAATTCGGAGTCACCTAGTGCAG”, the binding signal rises from 4240 fluorescence intensity (a.u.) to 17200 fluorescence intensity (a.u.).

First: CCGACAGAAATTTAATTGAAATTTGCCAAAGTTTCATGTTCGGAGTCACCTAGTGCAG
Second: TTTACAAAATAATTATCAAGACCACAAATTAACACTTCAACGGAGTCACCTAGTGCAG
The binding signal of the first is higher: 25300 fluorescence intensity (a.u.) for the first, 4720 fluorescence intensity (a.u.) for the second.

Compared with “CAAATTTGACATACTTTTATATCACAATTTTAAGAAGCTTCGGAGTCACCTAGTGCAG”, “TAAATTCAAATTTAAATTTGAATCGGGTATGTAAACTTTTCGGAGTCACCTAGTGCAG” is lower in binding signal: 14300 fluorescence intensity (a.u.) for the first, 7760 fluorescence intensity (a.u.) for the second.
